According to PubChem BioAssay AID504832 (National Center for Advancing Translational Sciences (NCATS), 2011):
Screen size: about 310,000 compounds; about 18,000 (5.8%) were called active. The shares of active, inactive and inconclusive entries below differ from those in the screen. Calls follow the shape of the dose curve; as a rule, active = well fitted inhibition curve with a large enough effect; inconclusive = small, poorly fitted or top-dose-only effect, or another doubt; inactive = no such curve, though single readings can be large or run the other way. No potency is given beside an inconclusive call; the fits are too rough.

Experiment: Primary qHTS for delayed death inhibitors of the malarial parasite plastid, 48 hour incubation
Details: P. falciparum luciferase growth in erythrocytes; series mostly up to 28.7 µM; activity change, negative = inhibition: at the top concentration
Method in brief: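 In quantitative HTS format, infected erythrocytes bearing luciferase-reporter parasites were treated for a single generation at 37 C. Luminescence after adding detection reagent served as the growth measure.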
% is scaled to controls: 0 for no effect and ±100 for the full control effect; potency is read from the fitted curve at half-maximal effect; tags tell the direction and shape of the fitted curve.

Question: With N=C1SC(c2ccccc2)C(=O)N1c1ncc(Cc2ccccc2)s1 (configuration not stated) as the molecule, how does the Potency read?
Answer: inconclusive [inhibitor, partial curve, poor fit]

Question: Which “activity change, negative = inhibition” value does the source give for Cc1cccc(C)c1NC(=O)N1CCC(N2CCCCC2)CC1 here?
Answer: inactive: 10.6%

Question: Which Potency does the source give for O=S(=O)(c1cccs1)N1CCc2ccccc21 here?
Answer: inconclusive [inhibitor, partial curve, poor fit]

Question: With Cc1ccc(-n2c(N)c(C(=O)Nc3c(C)n(C)n(-c4ccccc4)c3=O)c3nc4ccccc4nc32)cc1C as the molecule, how does the Potency read?
Answer: active: 10.4 µM

Question: Which “activity change, negative = inhibition” value does the source give for CS(=O)(=O)N1CCC(Oc2ccccc2C(=O)NC2CCCCCC2)CC1 here?
Answer: inactive: -34.7%

Question: With CC(=O)N1CCN(c2ccc(NC(=O)C(c3ccccc3)c3ccccc3)cc2)CC1 as the molecule, how does the Potency read?
Answer: inconclusive [inhibitor, partial curve, poor fit]

Question: For O=C(NCC1CCOCC1)c1ccc2nc(Cc3cccc(Cl)c3)oc2c1, which “activity change, negative = inhibition” value is on record?
Answer: inactive: 38.3%

Question: For CCOC(=O)CN1C(=O)CN(c2ccc(C)c(C)c2)C1=O, which “activity change, negative = inhibition” value is on record?
Answer: inactive: 25.9%

Question: With COc1ccc2cc3cc(C(=O)N(C)C4CCCCC4)oc3nc2c1 as the molecule, how does the “activity change, negative = inhibition” value read?
Answer: inactive: -6.88%

Question: With FC(F)c1nnc2ccc(Cl)nn12 as the molecule, how does the Potency read?
Answer: inconclusive [inhibitor, full curve, poor fit]

Question: Which Potency does the source give for CNC(=O)c1cc(NC(=O)CCn2nc(-c3ccccc3)c3ccccc3c2=O)ccc1OC here?
Answer: active: 2.08 µM

Question: For O=C(CSc1nnc2sc3ccccc3n12)NCc1ccco1, which “activity change, negative = inhibition” value is on record?
Answer: inactive: 30.1%

Question: With COc1cc(O)c(C(CCN2CCN(c3ccccc3)CC2)c2cc(OC)c(OC)c(OC)c2)c(OC)c1 (configuration not stated) as the molecule, how does the Potency read?
Answer: active: 1.31 µM

Question: Which Potency does the source give for O=c1n(-c2ccccc2)c(=O)n2n1CCC2 here?
Answer: inconclusive [inhibitor, full curve, poor fit]

Question: For Cc1cccc(-c2cc3nc(C)cc(NCCCN(C)C)n3n2)c1, which Potency is on record?
Answer: active: 10.4 µM

Question: With COc1ccc2[nH]c(O)c(N=NC(=O)c3ccc(NS(=O)(=O)c4cccs4)cc3)c2c1 as the molecule, how does the Potency read?
Answer: inconclusive [inhibitor, single point]

Question: For NNS(=O)(=O)c1ccc(N2CCCC2=O)c([N+](=O)[O-])c1, which Potency is on record?
Answer: inconclusive [inhibitor, single point]

Question: For CCOC(=O)CC(NC(=O)c1cccc2c1C(=O)N(Cc1cccnc1)C2)c1ccc(OC(C)C)cc1 (configuration not stated), which Potency is on record?
Answer: active: 9.28 µM

Question: With O=C(Nc1cccc2ncccc12)c1cccnc1 as the molecule, how does the “activity change, negative = inhibition” value read?
Answer: inactive: 23.3%

Question: With CC1CCN(S(=O)(=O)c2cc(F)ccc2CN2C(=O)c3cccnc3C2=O)CC1 as the molecule, how does the “activity change, negative = inhibition” value read?
Answer: inactive: 2.31%

Question: Which “activity change, negative = inhibition” value does the source give for COc1ccc(NC(=O)CC2C(=O)N(c3ccc(OC)cc3)C(=O)N2CCN2CCN(C)CC2)cc1 (configuration not stated) here?
Answer: inactive: 1.86%

Question: Which “activity change, negative = inhibition” value does the source give for CC(=O)N1c2ccccc2NC2=C(C(=O)CCC2)C1c1cccnc1 (configuration not stated) here?
Answer: inactive: 12.7%

Question: With CC[n+]1c(C)sc2c3ccsc3ccc21 as the molecule, how does the Potency read?
Answer: active: 14.7 µM

Question: Which “activity change, negative = inhibition” value does the source give for C/C(=N\NC(=S)NCc1ccccc1)c1cccc(Br)c1 here?
Answer: inactive: -9.43%

Question: For CN(C(=O)c1ccccc1C(=O)OCC(=O)c1ccccc1)c1ccccc1, which Potency is on record?
Answer: inconclusive [inhibitor, full curve, poor fit]

Question: Which Potency does the source give for CC(C)(C)OC(=O)N1CCC(c2c(C(=O)N3CCN(C(=O)c4ccco4)CC3)cnn2-c2cccc(Cl)c2)CC1 here?
Answer: active: 11.7 µM

Question: Which Potency does the source give for COc1cc(C)nc(-c2csc(C)n2)n1 here?
Answer: inconclusive [inhibitor, single point]

Question: For Cc1ccc(C)c(OCC(=O)Nc2nc3ccc([N+](=O)[O-])cc3s2)c1, which “activity change, negative = inhibition” value is on record?
Answer: inactive: 0.357%

Question: For N#Cc1ccccc1OCC(=O)OCC(=O)Nc1ccc2c(c1)OCO2, which “activity change, negative = inhibition” value is on record?
Answer: inactive: -5.81%

Question: Which Potency does the source give for O=C(c1cc(S(=O)(=O)N2CCOCC2)ccc1Cl)N1CCc2ccccc2C1 here?
Answer: inconclusive [inhibitor, partial curve, poor fit]

Question: Which Potency does the source give for Cc1ccc(S(=O)(=O)NC(C(=O)N2CCN(S(=O)(=O)c3cccc(F)c3)CC2)C(C)C)cc1 (configuration not stated) here?
Answer: inconclusive [inhibitor, single point]

Question: With Cc1cc(C)c(OCCCNC2CCCC2)c(Br)c1 as the molecule, how does the Potency read?
Answer: inconclusive [inhibitor, single point]

Question: With COc1ccc(OC)c(/C=C/C(=O)OCC(=O)N2CCN(S(=O)(=O)c3ccc(C)cc3C)CC2)c1 as the molecule, how does the “activity change, negative = inhibition” value read?
Answer: inactive: 19.5%

Question: Which Potency does the source give for CCN1CCN(CC(=O)c2cc(Cl)ccc2Cl)CC1 here?
Answer: inconclusive [inhibitor, partial curve, poor fit]

Question: Which Potency does the source give for N#CC1(Nc2cccc(Br)c2)C(=O)Nc2ccccc21 (configuration not stated) here?
Answer: inconclusive [inhibitor, partial curve, poor fit]

Question: Which Potency does the source give for COC(=O)c1cc2c(ccn2-c2ccc(F)cc2)n1CC(C)C here?
Answer: inconclusive [inhibitor, single point]

Question: Which Potency does the source give for Cc1cc(NC(=O)Cn2nc(C(F)(F)F)c3c2CCC3)no1 here?
Answer: inconclusive [inhibitor, single point]

Question: For O=C(OCCOc1ccc(Br)cc1)c1ccc(Cl)nc1, which “activity change, negative = inhibition” value is on record?
Answer: inactive: 10.5%

Question: For COCCNC(=S)N(CCc1c(C)[nH]c2ccc(C)cc12)Cc1cc(OC)c(OC)c(OC)c1, which Potency is on record?
Answer: inconclusive [inhibitor, partial curve]

Question: With N#C/C(=N\Nc1ccc(Cl)cc1)C(=N)N1CCCCCC1 as the molecule, how does the “activity change, negative = inhibition” value read?
Answer: inactive: 351%

Question: Which Potency does the source give for CN1CCN(S(=O)(=O)c2ccc(Sc3nnnn3-c3ccccc3)c([N+](=O)[O-])c2)CC1 here?
Answer: inconclusive [inhibitor, partial curve]

Question: With C=C1CCN(C(C(=O)OC)C(C)C)S(=O)(=O)c2ccc(F)cc21 (configuration not stated) as the molecule, how does the Potency read?
Answer: inconclusive [inhibitor, single point]

Question: For CN(C)C(CNc1ccc(S(C)(=O)=O)cc1[N+](=O)[O-])Cc1ccccc1 (configuration not stated), which Potency is on record?
Answer: inconclusive [inhibitor, partial curve, poor fit]

Question: For COc1ccc(-n2c(=S)[nH]c3ncccc3c2=O)cc1, which Potency is on record?
Answer: inconclusive [inhibitor, partial curve, poor fit]

Question: Which “activity change, negative = inhibition” value does the source give for Cc1ccc(C)c(S(=O)(=O)NCc2ccc(C(=O)NCc3ccccn3)cc2)c1 here?
Answer: inactive: -12.2%

Question: For COc1cc(NC(=O)c2cnc(NCc3ccccc3)nc2C)cc(OC)c1OC, which Potency is on record?
Answer: inconclusive [inhibitor, single point]

Question: With O=C(Cc1ccccc1F)N1CCN(S(=O)(=O)c2ccc(Cl)cc2)CC1 as the molecule, how does the Potency read?
Answer: inconclusive [inhibitor, single point]
